Laboratory results from PubChem BioAssay AID902 (National Center for Advancing Translational Sciences (NCATS), 2007).
Screen size: about 130,000 compounds; about 1,900 (1.5%) were called active. Inconclusive results, whose numbers are uncertain, are shown with a selection of clear calls. Calls follow the shape of the dose curve; as a rule, active = well fitted cell-killing curve with a large enough effect; inconclusive = small, poorly fitted or top-dose-only effect; inactive = no such curve, though single readings can be large or run the other way. Potencies beside an inconclusive call are fits to weak or partial responses and may not hold up.

Assay: qHTS Screen for Compounds that Selectively Target Cancer Cells with p53 Mutations: Cytotoxicity of p53ts Cells at the Nonpermissive Temperature; also: nearly all actives have a fitted effect of over 55% in size
Settings: H1299-p53A138V viability at 39C, ATP luminescence, 24 h; activity change, negative = cell killing: at 46.1 µM (top of the series)
% is scaled to controls: 0 for no effect and ±100 for the full control effect; potency is read from the fitted curve at half-maximal effect; tags tell the direction and shape of the fitted curve.

SMILES	Potency	activity change, negative = cell killing
CCOC(=O)Cc1ccc(NC(=O)Nc2ccccc2OCc2cc(=O)n3ccccc3n2)cc1	inconclusive: 1.58 µM [cytotoxic, full curve, poor fit]	
Cc1nc2cnc(N(C)C)nc2n(Cc2cccs2)c1=O	inconclusive: 0.794 µM [cytotoxic, single point]	
CCN1CCN(c2ncnc3c2cnn3-c2ccc(C)c(Cl)c2)CC1		inactive: -23.5%
CC1=C(C)C(=O)C(N2CCOCC2)=CC1=O	inconclusive: 22.4 µM [cytotoxic, single point]	
CCn1c(CNC(=O)c2ccc(OC)cc2)nnc1SCC(=O)Nc1ccccc1		inactive: -16%
Cc1cccc(NC(=O)c2cc(S(=O)(=O)NCc3ccc4c(c3)OCO4)ccc2F)c1C		inconclusive: -33.2% [cytotoxic]
O=C(CCS(=O)(=O)c1nc(-c2ccc3c(c2)OCO3)cc(C(F)(F)F)n1)Nc1ccccc1F	inconclusive: 25.1 µM [cytotoxic, single point]	
O=c1oc2ccccc2c(O)c1CN1CCCCC1	inconclusive: 31.6 µM [cytotoxic, single point]	
CC(=O)c1cccc(NC(=O)c2c(N3CCCC3=O)c3cc(F)ccc3n2C)c1		inactive: -26.3%
CCOC(=O)c1sc(NC(=O)c2cccs2)cc1C	inconclusive: 3.98 µM [cytotoxic, partial curve]	
Cc1cccc(N2CCN(C(=O)c3cnn(-c4cccc(Cl)c4C)c3C3CCNCC3)CC2)c1C	inconclusive: 31.6 µM [cytotoxic, single point]	
COc1ccc(S(=O)(=O)Cc2ccc(C(=O)N3CCN(c4cccc(C)c4)C(C)C3)o2)cc1 (stereo not given)		inactive: -3.4%
CCCc1cc2c(n1Cc1ccc(OC)cc1)C(C)C1CN(C(=O)c3ccccc3)C(C)(C(=O)OC)C21 (stereo not given)		inactive: 4.44%
CN1CCN(c2ccc(C(=O)c3ccc(F)cc3)cc2)CC1	inconclusive: 10 µM [cytotoxic, partial curve]	
CS(=O)(=O)c1ncc(Cl)c(C(=O)Nc2ccc(N3CCOCC3)cc2)n1	inconclusive: 31.6 µM [cytotoxic, single point]	
CCOc1ccc(S(=O)(=O)Nc2ccc3c(c2)N(C(C)=O)CCC3)cc1		inactive: -14%
O=C(c1ccc(CSc2nc3ccncc3n2Cc2cccc(F)c2)cc1)N1CCCCCC1	inconclusive: 12.6 µM [cytotoxic, single point]	
Cc1cncn1CCc1nc2c3ccccc3nc(SCC(=O)Nc3cccc(Cl)c3)n2n1	inconclusive: 31.6 µM [cytotoxic, single point]	
COc1ccc(OC)c(NC(=O)c2c(NCc3cccs3)sc3c2CCCC3)c1		inactive: 7.69%
COCCN1C(=O)c2[nH]nc(-c3cc(C)ccc3O)c2C1c1ccc(C(C)C)cc1 (stereo not given)		inconclusive: -104% [cytotoxic]
O=C(Cc1ccccc1)Nc1cccc(-c2cn3cccnc3n2)c1	inconclusive: 25.1 µM [cytotoxic, single point]	
CCc1cccc(CC)c1NC(=O)CN1C(=O)C(=O)c2ccccc21	inconclusive: 15.8 µM [cytotoxic, single point]	
Cc1ccccc1OCC(O)Cn1c(=N)n(CCN2CCCCC2)c2ccccc21 (stereo not given)	inconclusive: 12.6 µM [cytotoxic, single point]	

SMILES	Potency	activity change, negative = cell killing
Cc1ccc(/C=C/c2nc3ccccc3[nH]2)cc1	active: 0.501 µM	
CC1CCCCN1c1nnc(NC(=O)Nc2ccccc2F)s1 (stereo not given)	inconclusive: 15.8 µM [cytotoxic, partial curve, poor fit]	
CCC(c1nnnn1Cc1ccccc1)N(Cc1ccco1)Cc1cc2cc(OC)ccc2[nH]c1=O (stereo not given)		inactive: -5.57%
COc1cc2c(cc1OC)CN(C(=O)C(C)(C)C)CC2		inactive: 0.787%
COc1cc(NS(=O)(=O)c2ccc3[nH]c4c(c3c2)CCCCCC4)cc(OC)c1	inconclusive: 15.8 µM [cytotoxic, partial curve]	
CCOC(=O)Cn1c(=O)c2c(nc3n2CCN3c2ccc(CC)cc2)n(C)c1=O	inconclusive: 1.26 µM [cytotoxic, full curve, poor fit]	
CN(C)c1ncc2nc(-c3ccc(Cl)cc3)c(=O)n(C)c2n1		inactive: -3.61%
Cc1ccc2c(CC(=O)Nc3ccc(N4CCN(C)CC4)cc3C)coc2c1	inconclusive: 7.94 µM [cytotoxic, partial curve]	
CCCN(C(=O)c1noc2c1COc1ccc(C)cc1-2)c1ccc(Cl)c(Cl)c1	inconclusive: 0.501 µM [cytotoxic, full curve, poor fit]	
Cc1cccc(-n2c(C)cc(C(=O)NC3CCCCC3)c2C)c1	inconclusive: 11.2 µM [cytotoxic, partial curve]	
COc1cccc(Cn2c(=O)n(Cc3ccco3)c(=O)c3oc4ccccc4c32)c1		inactive: 0.297%
Cn1c(C(=O)Nc2ccc3c(c2)OCCO3)cc2sccc21	active: 12.6 µM	
CCc1ccccc1OC[C@@H](O)CN[C@H]1CCCc2ccccc21	active: 20 µM	
Cc1cc(C)cc(S(=O)(=O)Nc2cccc(-c3ccc(N4CCOCC4)nn3)c2)c1	inconclusive: 20 µM [cytotoxic, partial curve]	
CC(C)(C)C(=O)NCCc1nc2ccccc2n1CCCCOc1ccc(Cl)cc1	active: 31.6 µM	
Nc1ccc2oc(-c3ccccn3)nc2c1	inconclusive: 20 µM [cytotoxic, partial curve]	
Cc1ccc2nc(N3CCN(C(=O)C4CC4)CC3)sc2c1	inconclusive: 0.199 µM [cytotoxic, partial curve, poor fit]	
COc1ccc(-c2nc(CNS(=O)(=O)c3ccccc3)cs2)cc1		inactive: -16.3%
CC1=C(C)/C(=N/OC(=O)c2cccc([N+](=O)[O-])c2)C=CC1=O	inconclusive: 12.6 µM [cytotoxic, single point]	
COC(=O)CS(=O)(=O)c1nnc([C@H](Cc2ccccc2)NC(=O)OC(C)(C)C)o1	inconclusive: 20 µM [cytotoxic, single point]	
CCOc1ccc(CNC(=O)CSc2nnc(C)c3c(C)n(-c4ccccc4)nc23)cc1	active: 25.1 µM	
COc1ccc(OC)c2sc(N3CCN(C(=O)C4CC4)CC3)nc12	inconclusive: 10 µM [cytotoxic, partial curve]	
